About 230 (0.21%) of roughly 110,000 compounds showed an effect of 50% or more. This is one part of the list.
target: DPAP1 (Plasmodium falciparum, UniProt Q8IIJ9); experiment: primary screen, percent inhibition; read by cleavage of a fluorogenic dipeptide substrate; higher = more effect of the substance; parameters: species or system P. falciparum D10 trophozoite lysates; single well
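Note: 30 min substrate incubation versus DMSO and 10 µM JCP410 controls.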

Sequence of DPAP1 (Q8IIJ9 whole entry, looked up): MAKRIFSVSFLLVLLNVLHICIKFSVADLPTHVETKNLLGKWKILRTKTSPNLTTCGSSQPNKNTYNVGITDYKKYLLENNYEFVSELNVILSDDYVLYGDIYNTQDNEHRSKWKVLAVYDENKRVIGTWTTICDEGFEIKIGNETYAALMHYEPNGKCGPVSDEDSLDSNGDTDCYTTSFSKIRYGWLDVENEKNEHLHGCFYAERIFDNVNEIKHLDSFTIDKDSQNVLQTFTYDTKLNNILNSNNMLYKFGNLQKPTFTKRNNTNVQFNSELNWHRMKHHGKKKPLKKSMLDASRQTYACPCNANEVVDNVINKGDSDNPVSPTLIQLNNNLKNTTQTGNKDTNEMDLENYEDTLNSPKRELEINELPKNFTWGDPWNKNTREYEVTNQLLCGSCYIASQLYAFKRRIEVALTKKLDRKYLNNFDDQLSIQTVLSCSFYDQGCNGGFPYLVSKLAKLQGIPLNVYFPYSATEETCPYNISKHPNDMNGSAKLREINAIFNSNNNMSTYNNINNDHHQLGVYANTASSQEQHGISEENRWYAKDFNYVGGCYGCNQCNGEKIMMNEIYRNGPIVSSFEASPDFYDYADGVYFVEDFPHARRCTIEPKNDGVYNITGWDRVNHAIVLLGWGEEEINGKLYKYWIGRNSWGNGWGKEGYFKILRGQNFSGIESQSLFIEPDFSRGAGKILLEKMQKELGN

Row | SMILES | % Inhibition @ 10 uM
1 | COc1ccc(C2C(C#N)=C(N)Oc3[nH]nc(C(C)(C)C)c32)c(OC)c1OC (stereo not shown) | -4.48%
2 | COc1ccc(NC(=O)CN(c2cc(C)cc(C)c2)S(=O)(=O)c2ccccc2)cc1OC | -5.49%
3 | C=CCOC(=O)C1=C(C)N=c2s/c(=C/c3ccc(OC)cc3)c(=O)n2C1c1ccc(OC)cc1 (stereo not shown) | -5.63%
4 | Cc1ccc(CSc2nc(=O)c3c(n2C)NC(=O)CC3c2cc(F)cc(F)c2)cc1 (stereo not shown) | 8.34%
5 | O=C(O)C1CCCN1S(=O)(=O)c1ccc(Cl)c(C(F)(F)F)c1 (stereo not shown) | 3.93%
6 | O=C(NCC1CCN(C(=O)c2ccccc2)CC1)c1ccccc1 | 2.48%
7 | Clc1cccc(-c2nc(NCCN3CCOCC3)nc3c2COc2ccccc2-3)c1 | -10.6%
8 | O=C(NCc1ccc2c(c1)OCO2)c1ccc(CS(=O)Cc2ccc(Cl)cc2)o1 (stereo not shown) | -5.77%
9 | CC(C)c1cc(C(=O)NCc2cccnc2)no1 | -7.15%
10 | COc1ccc2nc(NC(=O)c3cc(=O)c4ccc(C)c(C)c4o3)sc2c1 | 1.9%
11 | C[C@H](N[C@H](C)[C@@H](O)c1ccccc1)[C@H](O)c1ccccc1 | 0.324%
12 | O=C(Cn1ncc2ccsc2c1=O)NCCN1CCC(Cc2ccccc2)CC1 | 2.04%
13 | CNC(=O)C1CCC(=O)N1Cc1ccccc1Cl (stereo not shown) | 6.32%
14 | CCOc1ccc(NC(=O)c2c(NC(=O)COc3ccccc3)sc3c2CCC3)cc1 | 0.992%
15 | CN1CCN(c2ccc3nnc(CCC(=O)O)n3n2)CC1 | -1.03%
16 | CC(=O)c1cc2c(cc1NC(=O)C1CCCCC1)OCO2 | -5.7%
17 | O=C(CNS(=O)(=O)c1ccc(F)cc1)Nc1ccc(C(F)(F)F)cc1 | 5.25%
18 | CCOc1ccc(NC(=O)C2=C(C)NC(=O)NC2c2ccccc2)cc1 (stereo not shown) | -7%
19 | CC(C)C[C@H](NC(=O)N1CCN(c2ccc(Cl)c(Cl)c2)CC1)C(=O)NCC#N | -3.48%
20 | O=C(c1ccc(-c2ccccc2)cc1)N1CCN(C/C=C/c2ccccc2)CC1 | -0.192%
21 | N#Cc1c(SCC(=O)c2cccs2)nc2c(c1-c1ccncc1)CCCC2 | 4.12%
22 | O=C(Nc1ccc(-c2ccccc2)cc1)c1ccc(Br)cc1 | 0.98%
23 | O=C(CC12CC3CC(CC(C3)C1)C2)Nc1cnn(Cc2ccc(F)cc2)c1 | -3.05%
24 | COc1ccc(CN(C)S(=O)(=O)c2nnc(NC(=O)c3ccccc3OC)s2)cc1OC | 6.15%
25 | COc1cc(/C=C(\C2=NC(=O)CS2)c2nc3cccnc3n2C)ccc1O | -9.31%

Row | SMILES | % Inhibition @ 10 uM
26 | O=S(=O)(NC1CCCCC1)c1ccc(S(=O)(=O)N(Cc2ccccc2)CC2CCCO2)cc1 (stereo not shown) | 2.05%
27 | COCCNC(=O)CCCc1cn(Cc2ccc(F)cc2)c2ccccc12 | -2.07%
28 | CCc1nnc(NC(=O)c2cc3c(C)nc4ccccc4c3o2)s1 | -3.45%
29 | O=C1c2oc3ccccc3c(=O)c2C(c2cccc(O)c2)N1c1nccs1 (stereo not shown) | -4%
30 | c1ccc(CN2CCN(c3ncccn3)CC2)cc1 | -1.18%
31 | COc1ccccc1N1CCN(C(=O)CNS(=O)(=O)c2cc(Cl)ccc2Cl)CC1 | -1.02%
32 | CN1CCN(c2ccc(C(F)(F)F)cc2[N+](=O)[O-])CC1 | 2.92%
33 | CN(C)CCn1c(=O)c2nc[nH]c2n(C)c1=O | -1.22%
34 | CCOc1c(N2CCC(C)CC2)c(=O)c1=O | 8.71%
35 | COc1ccc(S(=O)(=O)N(CC(=O)Nc2cccnc2)c2ccc(F)cc2)cc1OC | 0.323%
36 | C=C(C)C1CCC(C)=C1COC(C)=O (stereo not shown) | -1.77%
37 | CCCOc1ccc(C(=O)Nc2ncc(Cc3ccccc3Cl)s2)cc1 | -1.06%
38 | Cc1nc(O)nc(O)c1S(=O)(=O)N1CCN(C(c2ccccc2)c2ccc(Cl)cc2)CC1 (stereo not shown) | -7.77%
39 | CC1CCN(CC(O)COCc2ccccc2)CC1 (stereo not shown) | -2.15%
40 | CC1CCCC(NC(=O)CNC(=S)N2CC3CC(C2)c2cccc(=O)n2C3)C1C (stereo not shown) | 1.16%
41 | COc1ccc2c(c1OC)C(=O)OC2 | -9.77%
42 | CCCCC(=O)C1CCN(Cc2ccccc2)CC1 | -2.21%
43 | CC(=O)NC(CO)C(=O)c1ccc([N+](=O)[O-])cc1 (stereo not shown) | 1.29%
44 | CS(=O)(=O)c1ccc2nc(NC(=O)c3ccccc3Cl)sc2c1 | 0.76%
45 | CC(=O)C12CC=CCC1CC1C3CC=C4CC(O)CC[C@]4(C)C3CC[C@@]12C (stereo partly shown) | -7.09%
46 | COc1ccc(OC)c(NC(=O)c2ccccc2Cl)c1 | 2.27%
47 | COCCCNc1oc(/C=C/c2cccc(OC)c2)nc1C#N | 2.54%
48 | COc1cccc(C(=O)COc2ccc(N3C(=O)C4CC=C(C)CC4C3=O)cc2)c1 (stereo not shown) | -2.74%
49 | CN(C)c1ccc(C(=O)Nc2nc3ccccc3s2)cc1 | 2.78%
50 | Cc1cc(C)n(-c2ccc3ccccc3n2)n1 | -3.16%

Row | SMILES | % Inhibition @ 10 uM
51 | CCOc1ccc(C2C(C(=O)OC)=CN(CCOC)C=C2C(=O)OC)cc1 | -8.96%
52 | CSc1ccc(C2CC(c3c(O)cc(C)oc3=O)=NCCS2)cc1 (stereo not shown) | -4.11%
53 | Nc1c(C(=O)c2ccc(-c3ccccc3)cc2)sc2nc3c(c(-c4ccc(Cl)cc4)c12)CCCC3 | -6.44%
54 | Cc1c(NC(=O)c2cccc([N+](=O)[O-])c2C(=O)O)c(=O)n(-c2ccccc2)n1C | 0.912%
55 | CSc1ncc(C(=O)NCc2ccco2)c(-c2ccccc2)n1 | 4.01%
56 | CC(C)CC(NC(=O)c1ccc(O)cc1)C(=O)NCC#N (stereo not shown) | 2.22%
57 | Cc1ccc(-n2c3c(c(=O)[nH]c2=O)C(C(F)(F)F)(C(F)(F)F)NC(=O)N3)cc1 | -2.73%
58 | COc1ccc(C(=O)Nc2cc(C)on2)cc1 | -7.23%
59 | O=C(C1=C(O)C(=O)N(Cc2ccco2)C1c1cccs1)c1cccs1 (stereo not shown) | -11.7%
60 | Cc1cc(C)n(CN2C(=O)c3ccccc3C2=O)n1 | -3.62%
61 | CC(=O)c1cccc(NC(=O)COc2cc(Cl)ccc2Cl)c1 | -7.09%
62 | CC1CCc2c(sc(NC(=O)COc3c(F)c(F)cc(F)c3F)c2C(N)=O)C1 (stereo not shown) | 4.01%
63 | C(=C\c1ccccc1)/C=N/n1cnnc1 | 13.2%
64 | COc1ccc(CCNc2cnc(O)nc2O)cc1OC | -3.33%
65 | COc1ccc(CN2CCCCC2)c(OC)c1C | -5.42%
66 | Nc1nc2nc(-c3ccc(F)cc3)cc(C(F)(F)F)n2n1 | -1.94%
67 | O=C1C2C3CCC(O3)C2C(=O)N1c1ccc(Br)cn1 (stereo not shown) | 3.98%
68 | Cc1cccc(C(=O)Nc2ccc(C)c(Cl)c2)c1 | 3.85%
69 | CC1(C)CC(=O)C(C(C2=C(O)CC(C)(C)CC2=O)c2ccc([N+](=O)[O-])cc2)C(=O)C1 (stereo not shown) | -5.23%
70 | Cc1nnc(NC(=O)c2ccc(NC(=O)C(F)(F)F)cc2)s1 | 3.01%
71 | CCCCNC(=O)C1CCN(S(=O)(=O)c2c(C)cc(C)cc2C)CC1 | -6.37%
72 | C=CCNC(=O)C1CCN(S(=O)(=O)N2CCC3(CC2)OCCO3)CC1 | -2.99%
73 | O=C(CSc1nc2ccccc2o1)NC1CCCC1 | 0.815%
74 | COc1cc(C(c2c(O)n[nH]c2C)c2c(O)n[nH]c2C)cc(Cl)c1OCC(=O)O | 5.44%
75 | Cc1cccc2sc(N(CCN(C)C)C(=O)C3COc4ccccc4O3)nc12 (stereo not shown) | -2.5%

Row | SMILES | % Inhibition @ 10 uM
76 | CCC(C)N(CCNC(=O)C1CCN(C(=O)c2cc3sccc3n2C)CC1)C1CCCCC1 (stereo not shown) | -1.58%
77 | Cc1c(C(=O)N2CCCCC2)sc(NC(=O)Cc2ccccc2)c1C#N | 1.13%
78 | COc1ccc(CCNS(=O)(=O)c2ccc(C)cc2)c(OC)c1OC | -2.75%
79 | O=C(O)c1cc(Cl)ccc1/N=C/C1=C(O)c2ccccc2C1=O | -6.27%
80 | Oc1cccc(C2NCCc3c2[nH]c2ccccc32)c1 (stereo not shown) | -1.8%
81 | N#CC1=C(N)Oc2[nH]nc(C(F)(F)F)c2C1c1ccc(Br)cc1 (stereo not shown) | 0.726%
82 | CC1CCc2c(sc(NC(=O)c3cnccn3)c2C#N)C1 (stereo not shown) | -6.34%
83 | O=C(NC(C(=O)O)C12CC3CC(CC(C3)C1)C2)c1ccccc1 (stereo not shown) | -1.77%
84 | CC(CCc1ccccc1)N1CCN(c2ccc(F)cc2)CC1 (stereo not shown) | -1.82%
85 | Cc1ccccc1OCC(=O)Nc1ccc(CC#N)cc1 | -1.89%
86 | COCCNC(=O)Cn1ncc2ccc(C)cc21 | 0.596%
87 | O=C(CSc1nc(-c2ccc(Br)cc2)c[nH]1)Nc1ccccc1 | -6.36%
88 | CCCCCCCC(=O)NC(C)Cc1c[nH]c2ccccc12 (stereo not shown) | -4.18%
89 | C/C=C/Cn1c(SC(C)C)nc2c1c(=O)[nH]c(=O)n2C | -2.78%
90 | COc1ccc(CCN2C(=O)C(NC(C)=O)(C(F)(F)F)C3=C2CC(C)(C)CC3=O)cc1OC (stereo not shown) | 0.221%
91 | O=C(Nc1nc2ccccc2s1)c1cccnc1 | 2.67%
92 | CCOC(=O)c1c(NC(=O)Cc2ccccc2)sc2c1CCC(C)C2 (stereo not shown) | 9.09%
93 | CN(C)CCNC1C2CC3CC(C2)CC1C3 (stereo not shown) | 1.57%
94 | N#Cc1ccc(S(=O)(=O)N2CCC(Oc3ccc(-n4cnnn4)cc3)CC2)cc1 | 0.635%
95 | CCOC(=O)C1=C(N)Oc2c(c(=O)oc3ccccc23)C1c1ccc(Cl)c(Cl)c1 (stereo not shown) | -2.51%
96 | O=C(O)C1C2CCC(C2)C1C(=O)NCc1ccco1 (stereo not shown) | -6.27%
97 | CC(C)(C)CC(=O)Nc1nc2ccccc2s1 | -0.996%
98 | COc1ccc(-c2cc(C(F)(F)F)nc(SCC(=O)Nc3cccc(C)n3)n2)cc1OC | 6.46%
99 | CNC(=O)c1ccc(CSc2nc3cccnc3n2Cc2ccc(F)cc2)cc1 | -4.16%
100 | COc1ccc(C(=O)Nc2ccc(S(=O)(=O)Nc3cc(C)on3)cc2)cc1Br | -10.2%
